From PMC12136788
Some of the results follow.

T1: UNK ZnF1-3 (human, UniProt Q9C0B0 31-174)
T1 sequence: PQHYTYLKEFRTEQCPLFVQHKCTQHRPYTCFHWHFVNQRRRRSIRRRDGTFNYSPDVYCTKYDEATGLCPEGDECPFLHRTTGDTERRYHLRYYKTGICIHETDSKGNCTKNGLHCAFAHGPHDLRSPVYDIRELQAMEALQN

B1: chr17:49239293:49239294:+_ENSG00000239672_ENST00000393196|hu_mus|motif|central (ssRNA)
RNA: GGGAGUUCUACAGUCCGACGAUCCACAGGGAGUCACAGCUCCCAAAGGUUCCUUCCAGGUCAAAGAAGUUCCAGAAAUAUCGGGGGUUGCUGGUCCCCUGCCUGUGAGAACAAGAGUAAGCAGGUAGAAAACCAGCACCGUCCCAACAGAGGAUUGAGCAUCA
B2: chr10:57206289:57206290:+_ENSMUSG00000019878_ENSMUST00000079833|mus_mus|motif|central (ssRNA)
RNA: GGGAGUUCUACAGUCCGACGAUCGCCGGCACGUUGGAACUCUGCUUCAUUGUUAGCCCGGUGCAGGGAUUCCAAAUUCGGCGGCCGAACGCGGAGGUCGCAGCGGCGGCGGCGGCGGCGGCGGCGGCAGCAGCGGCGGUGGCACAACAGAGGAUUGAGCAUCA
B3: 63476008_63481888_13387_CDS_ENSMUSG00000030451_ENSMUST00000076226|mouse|control|control (ssRNA)
RNA: GGGAGUUCUACAGUCCGACGAUCCUGGAUGCGGUUCAGCUCCACCACAGGCCCAUGUUGGCGAUCUCGCACCAUAGUUGCUUGUACUACCUUCCUGAAAGCUGCUUCCUUGCCCUGAGAUAUUAAGAUCCCACGGAGUGUGUCCAACAGAGGAUUGAGCAUCA
B4: chr11:98018192:98018193:-_ENSMUSG00000018160_ENSMUST00000107545|mus_mus|FALSE|FALSE (ssRNA)
RNA: GGGAGUUCUACAGUCCGACGAUCUCCUGAACUGCCUGGGGAUUUGGACCCACCCGUGCUGGUAGGUGGGGUGAAAGGUCUAUUAGAAGAACUGUGAGAUGGGGACUUCCCCUCAGUGUCUGCCUUCUUCCGCUUUGGAGGCUUCAACAGAGGAUUGAGCAUCA
B5: chr10:105151994:105151995:-_ENSG00000173915_ENST00000309579|hu_hu|FALSE|FALSE (ssRNA)
RNA: GGGAGUUCUACAGUCCGACGAUCUUUAAAAUCCAUUUAUGUUGCUUUCACAGCUGGAGUUUUUUUGGACCUUAACUUGAAAUAUAAGACAAUCAAUGCAAUGCUUCCAUAUGUGGCCAGUACACAGUUCAUUCUACCUGUGAGCAACAGAGGAUUGAGCAUCA
B6: chr1:33860009:33860010:-_ENSMUSG00000042197_ENSMUST00000044455|mus_mus|FALSE|FALSE (ssRNA)
RNA: GGGAGUUCUACAGUCCGACGAUCGCUGGAGAUAUCCCAAGGAACUGACGAGCUCUCACUUGGCCUAGAAUGAUGAAAUCUAAAACAACUCCUGGACUGCAGAUCACGUAUGACUCGGGACAUCUCAGCCACUUGUGUCUGGAGCAACAGAGGAUUGAGCAUCA
B7: chr7:54825262:54825263:-_ENSG00000132432_ENST00000352861|hu_hu|hu_hu_hu_mus_False|78_108 (ssRNA)
RNA: GGGAGUUCUACAGUCCGACGAUCCUGACUUGGCUCAUCCACAAACUGCAUUACCUGCAUGACUGCCGUUGGAUGGCGGAUUGAGAGCGUAGAGACACGUAGCUCAGGAGAGAACCGAGCCCAACGGAACCGGAAGCUGGCAACCAACAGAGGAUUGAGCAUCA
B8: 77200487_77212898_524_3pUTR_ENSG00000127947_ENST00000248594|human|control|control (ssRNA)
RNA: GGGAGUUCUACAGUCCGACGAUCUACAUAUGCUUUUGGCCCAUAGACGCCCUUUAUAAAAUUUGCAUUGAUAUAGUCUGAAUCUUGUGAAGGAGUCUUUAAUGUCAAUUUAACUCGGCUGUGAUCAAAUGGCAGUAUGUCCUUCAACAGAGGAUUGAGCAUCA
B9: chr1:155330963:155330964:-_ENSMUSG00000042699_ENSMUST00000042141|perfect_dup|motif|central (ssRNA)
RNA: GGGAGUUCUACAGUCCGACGAUCACCUUCCACCUGAACCUCACACAUGAAUUUCUGCCUGUUUUUGUUCCCCACUGCUCGGAUUUCAUAGGAUGGGGUCAUCUUCCUUUUGCCACACCAGGCAUACAGAAAAUUUUUAACGUCCAACAGAGGAUUGAGCAUCA
B10: chr8:79514634:79514635:+_ENSG00000171033_ENST00000352966|hu_hu|motif|central (ssRNA)
RNA: GGGAGUUCUACAGUCCGACGAUCACUGUGUUUUAAAAAAGGGUGUUCUAUCCUGUGUACACCACCACAGUAUGGAAAACGGAAAUGAAAAGACAGCCCUUUUAAAAAUGAGUGGUAUAAAAAUUCACAGUAAUGUACAUCAUUCAACAGAGGAUUGAGCAUCA
B11: chr6:51416610:51416611:-_ENSMUSG00000004980_ENSMUST00000090002|perfect_dup|motif|central (ssRNA)
RNA: GGGAGUUCUACAGUCCGACGAUCCCUAUCAGUAAUUAUCUCAAUGGUAUCAAUUUUUCCAUAUUCCUCAAAGUAAUCUCGGAGGUGAUGUUCCUCAGUAUCUUCUUUAAUUCCGCCAACAAACAGCUUCUUCACAGUUACAUGCAACAGAGGAUUGAGCAUCA
B12: chr11:121178941:121178942:+_ENSG00000109929_ENST00000392789|hu_mus|FALSE|FALSE (ssRNA)
RNA: GGGAGUUCUACAGUCCGACGAUCCUUGAAAAACCAAAAAAAGAAAAAAGAAAAAAAAAUGACACUCACCAAGAUCUUCAGUUAAAUAAUCUCCUAUCUAGACUGAAUUAUGGAAGAGCUGACAUUUAAAAAAAAUACCAUUUACAACAGAGGAUUGAGCAUCA
B13: 192275893_192278888_3021_CDS_ENSG00000128641_ENST00000304164|human|control|control (ssRNA)
RNA: GGGAGUUCUACAGUCCGACGAUCAAUUUUGUUCACGACUUCAGCAAUGAUGAUCUUUUCUUCAAUGGCAUCUUUGAGUUUCUUAUACUUGGGGUUCUUGUUGAUUUCCAGGUAAGCCCCUUGGAAUGGUUGCCCAACACUAGACAACAGAGGAUUGAGCAUCA
B14: 118575273_118577313_527_CDS_ENSG00000088205_ENST00000263239|human|control|control (ssRNA)
RNA: GGGAGUUCUACAGUCCGACGAUCCUUCUCCACAUUAUUUUCUGUUUCUUUAGUAGUCUCGGCACUUUCUUCUUCAGAUUUCCCUUUGUUUUCAGUUUUUGCUUUUUUCGUAUCAGGCUCAGCAUCAUUCACCAUUUUUCUCUUCAACAGAGGAUUGAGCAUCA

Target: T1, UNK ZnF1-3
Assay: nsRBNS (natural sequence RNA bind-n-seq); RBNS binding buffer (assumed for nsRBNS): 25 mM Tris pH 7.5, 150 mM KCl, 3 mM MgCl2, 0.01% Triton X-100, 500 ug/ml BSA, 20 U/ml SUPERase-In, 4 C; UNK is unkempt and MSI1 is Musashi-1; names of the RNAs are library labels; protein concentration not given here; high values mean tight binding

Binder | binding signal
B1 | 0.763 enrichment R
B2 | 1.34 enrichment R
B3 | 0.86 enrichment R
B4 | 1.01 enrichment R
B5 | 0.959 enrichment R
B6 | 1 enrichment R
B7 | 1.4 enrichment R
B8 | 1.03 enrichment R
B9 | 0.93 enrichment R
B10 | 1.18 enrichment R
B11 | 1.4 enrichment R
B12 | 3.08 enrichment R
B13 | 0.426 enrichment R
B14 | 0.176 enrichment R
